Measured values taken from PubChem BioAssay AID1477 (National Center for Advancing Translational Sciences (NCATS), 2009).
Out of some 230,000 compounds screened, fewer than 10 were called active. The inconclusive results got no clear call from the source; some entries with a clear call stand among them for comparison. Calls follow the shape of the dose curve; as a rule, active = well fitted curve in the direction sought with a large enough effect; inconclusive = small, poorly fitted or top-dose-only effect, or effect the other way, or another doubt; inactive = no such curve, though single readings can be large or run the other way. Potencies of inconclusive entries are left out as doubtful fits.

target: Runt-related transcription factor 1 (Homo sapiens) + Core-binding factor subunit beta (Homo sapiens) (UniProt Q01196+Q13951); experiment: qHTS Assay for Compounds Blocking the Interaction Between CBF-beta and RUNX1 for the Treatment of Acute Myeloid Leukemia; conditions: AlphaScreen CBFb-His/RUNX1-biotin binding, biochemical; activity, negative = inhibition: at 59.8 µM (top of the series) unless noted; as to activity, negative = inhibition: % of control where 0% means no effect
Sequence of UniProt Q01196 (Q01196 whole entry, looked up): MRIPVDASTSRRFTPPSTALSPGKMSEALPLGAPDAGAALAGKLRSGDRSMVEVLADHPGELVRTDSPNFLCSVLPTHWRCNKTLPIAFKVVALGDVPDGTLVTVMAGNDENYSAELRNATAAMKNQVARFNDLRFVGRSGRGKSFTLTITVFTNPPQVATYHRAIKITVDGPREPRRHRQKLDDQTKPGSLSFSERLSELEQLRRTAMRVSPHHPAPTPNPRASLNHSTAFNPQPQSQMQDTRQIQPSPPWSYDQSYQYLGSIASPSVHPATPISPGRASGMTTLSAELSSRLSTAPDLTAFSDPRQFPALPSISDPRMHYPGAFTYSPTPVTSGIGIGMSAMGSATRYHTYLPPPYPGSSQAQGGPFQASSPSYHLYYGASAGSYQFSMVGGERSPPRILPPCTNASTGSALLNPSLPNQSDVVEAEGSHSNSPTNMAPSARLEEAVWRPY
Sequence of UniProt Q01196 (Q13951 whole entry, looked up): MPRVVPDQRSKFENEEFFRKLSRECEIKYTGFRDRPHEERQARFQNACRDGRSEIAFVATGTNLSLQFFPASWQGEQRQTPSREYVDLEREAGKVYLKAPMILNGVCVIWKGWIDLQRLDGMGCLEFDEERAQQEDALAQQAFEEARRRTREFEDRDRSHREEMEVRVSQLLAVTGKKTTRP
In short: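 AlphaScreen binding: CBFb-His and RUNX1-biotin (30 nM each) preincubated 20 min, compound added for 15 min, then nickel and streptavidin beads for 90 min, all at room temperature. Disruption of the interaction by any mechanism counts as activity.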

SMILES | Potency | activity, negative = inhibition
COc1ccc(N)c2c1C(=O)c1ccccc1C2=O | inconclusive [inhibitor, partial curve, poor fit] | 
O=C(Nc1nc(-c2ccccc2)cs1)c1ccccc1NS(=O)(=O)c1ccc(F)cc1 |  | inactive: -8.48%
CC(C)(Oc1ccc(Cl)cc1)C(=O)NC1=NN(c2ccccc2)C(=O)C1 | inconclusive [inhibitor, partial curve] | 
CN(C)c1ccc(NC(=O)c2sc(SCC(=O)Nc3nccs3)nc2N)cc1 | inconclusive [inhibitor, single point] | 
N#Cc1nc(COc2ccc(Br)cc2)oc1N1CCCCCC1 | inconclusive [inhibitor, partial curve] | 
CCc1ccccc1N=C1S/C(=C/c2ccccc2OCC(=O)N2CCOCC2)C(=O)N1C | inconclusive [inhibitor, single point] | 
CN1CCN(NC(=O)CN2C(=O)S/C(=C\c3c(Cl)cccc3Cl)C2=O)CC1 | inconclusive [activator, single point] | 
O=C(/C(=N/N=C/c1ccc(O)c(O)c1)c1ccccc1)c1ccccc1 | inconclusive [inhibitor, partial curve] | 
CCOc1ccc(NC(=O)CCS(=O)(=O)c2ccc3c(c2)CCCN3C(C)=O)cc1 |  | inactive: -3.25%
COc1ccc(OC)c(/C=N/c2oc(-c3ccco3)c(-c3ccco3)c2C#N)c1 | inconclusive [inhibitor, single point] | 
COc1ccc(CCNC(=O)c2csc3c2CCCC3)cc1 | inconclusive [activator, single point] | 
Cc1ncc(CO)c(/C=N/NC(=S)Nc2ccc(C(C)C)cc2)c1O | inconclusive [inhibitor, single point] | 
O=C(Oc1ccc(Cl)c2cccnc12)c1cccc([N+](=O)[O-])c1 | inconclusive [inhibitor, single point] | 
CCN(c1ccc(N=Cc2c(O)n(Cc3ccc(OC)cc3)c(=O)c3ccccc23)cc1)C(C)C | inconclusive [activator, full curve, poor fit] | 
COc1cccc(NC(=O)c2cccc(OC)c2OC)c1 | inconclusive [inhibitor, single point] | 
Cc1cc(C)c(S(=O)(=O)/N=C2/C=C(SCC(=O)O)C(=O)c3ccccc32)cc1C | inconclusive [inhibitor, partial curve] | 
O=C(CNc1cccc(C(F)(F)F)c1)N/N=C/c1cn(-c2ccccc2)nc1-c1ccccc1 |  | inactive: 7%
CC(C)c1onc(C(=O)N2CCOCC2)c1[N+](=O)[O-] |  | inactive: -2.89%
COc1ccc(Cl)cc1-c1n[nH]c(=S)o1 |  | inactive: 14.9%
O=C(CCCSc1ccccc1)Nc1nc(-c2ccco2)c(-c2ccco2)s1 | inconclusive [inhibitor, single point] | 
C=CCn1c(SCC(=O)c2ccc(O)c(O)c2)nnc1-c1cccnc1 | inconclusive [inhibitor, full curve] | 
O=C(C1CCC1)N1CCc2cc(S(=O)(=O)N3CCN(c4ccccn4)CC3)ccc21 | inconclusive [inhibitor, single point] | 
CCOC(=O)C1CCCN(S(=O)(=O)c2ccc(OC)c3ccccc23)C1 (stereo not drawn) | inconclusive [activator, single point] | 

SMILES | Potency | activity, negative = inhibition
CCOc1ccccc1-c1nnc2n1N=C(c1ccccc1OC)CS2 |  | inactive: -3.49%
N#Cc1cc2c(nc1SCc1ccc(Cl)nc1)CCCCC2 | inconclusive [activator, single point] | 
CC(=O)Nc1ccc(S(=O)(=O)Nc2nc3ccccc3nc2N2CCc3ccccc3C2)cc1 |  | inactive: -4.09%
COC(=O)c1sccc1NC(=O)CSc1ccc(Cl)cc1 | inconclusive [activator, single point] | 
COc1cc(/C=C2/SC(=S)NC2=O)ccc1OS(=O)(=O)c1ccc(C)cc1 | inconclusive [inhibitor, single point] | 
O=C(CSCCO)Nc1ccc(C2CCCCC2)cc1 |  | inactive: 2.96%
CCC(=O)OC1(C)C(=O)C=C2C=C(c3ccsc3)OC=C2C1=O (stereo not drawn) | inconclusive [inhibitor, single point] | 
COc1ccc(CNc2ccc3c(c2)ncn3-c2ccccc2OC)cc1 | inconclusive [inhibitor, single point] | 
COc1ccc(CN(C(=O)c2oc3ccccc3c2C)C2CCS(=O)(=O)C2)cc1 (stereo not drawn) | inconclusive [inhibitor, single point] | 
Cc1c(N=C2NC(=O)/C(=C/c3cccc([N+](=O)[O-])c3)S2)c(=O)n(-c2ccccc2)n1C |  | inactive: -0.611%
O=C(Nn1cc(C(=O)Nc2ccc(F)cc2F)c2ccccc2c1=O)c1cnccn1 | inconclusive [inhibitor, partial curve] | 
CCCCNC(=S)N(C)/N=C/c1ccc(F)cc1 | inconclusive [activator, partial curve] | 
Cc1cc(C)n(-c2ccc(NN=C(C#N)C#N)cc2)n1 | inconclusive [inhibitor, single point] | 
Cc1cc(Cl)ccc1NC(=S)N1CCN(Cc2ccc3c(c2)OCO3)CC1 | inconclusive [activator, full curve] | 
COCCOC(=O)c1[nH]c2c(c1C)C(=O)CC(c1ccco1)C2 (stereo not drawn) | inconclusive [inhibitor, single point] | 
COc1ccc(CSCC(=O)Nc2ccc(S(=O)(=O)N3CCCCCC3)cc2)cc1 | inconclusive [inhibitor, partial curve] | 
CN1CCC(=C2c3ccccc3Sc3ccccc32)CC1 | inconclusive [inhibitor, full curve, poor fit] | 
Nn1c(SCC(=O)NC(=O)NCc2ccco2)nnc1-c1ccc(OC(F)F)cc1 | inconclusive [inhibitor, single point] | 
CCCCCCn1c(=O)c(C(=O)Nc2nnc(C)s2)c(O)c2ccccc21 |  | inactive: 0.548%
Cc1cccc(C2=NN(c3ccc(Br)cc3)[C@@H](C(=O)N3CCOC3=O)[C@@H]2c2ccccc2)c1 | inconclusive [activator, partial curve] | 
CCn1c(C)c(C(C)=O)c(N2CCN(c3cccc(Cl)c3)CC2)nc1=S | inconclusive [inhibitor, single point] | 
Cc1sc(NC(=O)c2ccco2)c(CN2CCN(Cc3ccccc3)CC2)c1C | inconclusive [inhibitor, single point] | 
CCCOc1ccc(N)cc1N |  | inactive: -16.2%

SMILES | Potency | activity, negative = inhibition
CC(=Nc1cccc(C)c1)c1sc2ccccc2c1O | inconclusive [activator, partial curve] | 
Cc1nc2ccccc2n1C1CCN(Cc2nnnn2CCc2ccccc2)CC1 |  | inactive: 10.9%
CC(C)CC(=O)NC(=S)NNC(=O)c1ccc(NC(=O)C2CCCCC2)cc1 | inconclusive [inhibitor, single point] | 
COc1ccc(-c2cc(C(=O)OC3CCOC3=O)c3ccccc3n2)cc1 (stereo not drawn) | inconclusive [activator, single point] | 
O=C(Oc1nsnc1N1CCOCC1)c1ccccc1 |  | inactive: -1.53%
Cc1ccccc1COC(=O)c1nn(-c2ccccc2)nc1N | inconclusive [activator, single point] | 
Brc1ccc(-c2noc(COc3ccc4c(c3)CCC4)n2)o1 | inconclusive [activator, single point] | 
N[C@@H](Cc1cc(I)c(Oc2ccc(O)c(I)c2)c(I)c1)C(=O)O | inconclusive [inhibitor, single point] | 
CCOC(=O)/C(=C/c1c2ccccc2cc2ccccc12)NC(=O)c1ccccc1 | inconclusive [activator, single point] | 
COCCCN1CN(S(=O)(=O)c2cccs2)c2nc3ccccc3nc21 |  | inactive: 1.59%
COc1ccc(OCc2nc(-c3ccc(F)c(F)c3)cs2)cc1 | inconclusive [activator, single point] | 
CCc1ccc(CSc2nccn2-c2ccccc2)cc1 | inconclusive [inhibitor, partial curve] | 
Cc1ccc2cc(C#N)c(N3CCCN(S(=O)(=O)c4ccc(F)cc4)CC3)nc2c1 | inconclusive [activator, partial curve] | 
COc1cc(OC)c(NC(=O)c2ccc3c(SCC(=O)O)c4c(nc3c2)CCCC4)cc1Cl | inconclusive [inhibitor, single point] | 
Cc1ccc(N=c2c([N+](=O)[O-])nn(-c3ccccc3)n2O)c(C)c1 | inconclusive [inhibitor, single point] | 
CC1(C(=O)O)NCCc2cc(O)c(O)cc21 (stereo not drawn) | inconclusive [inhibitor, full curve] | 
O=C1C=CC2=C3c4cc(O)c(O)cc4C[C@]3(O)COC2=C1 | inconclusive [inhibitor, partial curve] | 
CCC(=O)NC1Cc2ccccc2C(c2ccccc2)C1 (stereo not drawn) | inconclusive [activator, single point] | 
Cn1c2ccccc2c2nn(-c3ccccc3)c(=O)cc21 |  | inactive: 7.64%
O=C(c1ccc(Cl)cc1Cl)c1ncc(C(F)(F)F)cc1Cl |  | inactive: 4.64%
Cc1ccc2[nH]c(=O)c(CN(Cc3ccc4c(c3)OCO4)Cc3nnnn3C3CCCC3)cc2c1 |  | inactive: -2.42%
O=S(=O)(NCc1c(Cl)cccc1Oc1ccccc1)c1ccc(F)cc1 | inconclusive [activator, single point] | 
